Experimental findings from the GPR68 mutational scans of Howard et al. (2025) are described below.

Sequences and labels used below:
B1: GPR68, Q15743 (parent)
chain: MGNITADNSSMSCTIDHTIHQTLAPVVYVTVLVVGFPANCLSLYFGYLQIKARNELGVYLCNLTVADLFYICSLPFWLQYVLQHDNWSHGDLSCQVCGILLYENIYISVGFLCCISVDRYLAVAHPFRFHQFRTLKAAVGVSVVIWAKELLTSIYFLMHEEVIEDENQHRVCFEHYPIQAWQRAINYYRFLVGFLFPICLLLASYQGILRAVRRSHGTQKSRKDQIQRLVLSTVVIFLACFLPYHVLLLVRSVWEASCDFAKGVFNAYHFSLLLTSFNCVADPVLYCFVSETTHRDLARLRGACLAFLTCSRTGRAREAYPLGAPEASGKSGAQGEEPELLTKLHPAFQTPNSPGSGGFPTGRLA

In data set [1] the parent is B1. In words: cAMP reporter score (Enrich2 score, wild type = 0); higher = more signal; HEK293T, FACS bins.
The variants in data set [2] derive from B1. In words: surface expression score (Enrich2 score, wild type = 0); higher = more signal; HEK293T, FACS bins.

The least precise scores are not listed. Two further conditions of the source, in which the scores hardly spread, are not listed. In variant names, del marks residues removed and ins residues inserted between the two positions. For some of these results: How much ogerin was present is not stated here.

As to MANITADNSSMSCTIDHTIHQTLAPVVYVTVLVVGFPANCLSLYFGYLQIKARNELGVYLCNLTVADLFYICSLPFWLQYVLQHDNWSHGDLSCQVCGILLYENIYISVGFLCCISVDRYLAVAHPFRFHQFRTLKAAVGVSVVIWAKELLTSIYFLMHEEVIEDENQHRVCFEHYPIQAWQRAINYYRFLVGFLFPICLLLASYQGILRAVRRSHGTQKSRKDQIQRLVLSTVVIFLACFLPYHVLLLVRSVWEASCDFAKGVFNAYHFSLLLTSFNCVADPVLYCFVSETTHRDLARLRGACLAFLTCSRTGRAREAYPLGAPEASGKSGAQGEEPELLTKLHPAFQTPNSPGSGGFPTGRLA [G2A], the cAMP reporter score in data set [1] (pH 5.5) is 0.256; in data set [1] (pH 6), -0.567; in data set [1] (pH 6, modulator: ogerin), -0.048; in data set [1] (pH 6.5, modulator: ogerin), 0.112. The surface expression score in data set [2] was -0.123.
Consider MCNITADNSSMSCTIDHTIHQTLAPVVYVTVLVVGFPANCLSLYFGYLQIKARNELGVYLCNLTVADLFYICSLPFWLQYVLQHDNWSHGDLSCQVCGILLYENIYISVGFLCCISVDRYLAVAHPFRFHQFRTLKAAVGVSVVIWAKELLTSIYFLMHEEVIEDENQHRVCFEHYPIQAWQRAINYYRFLVGFLFPICLLLASYQGILRAVRRSHGTQKSRKDQIQRLVLSTVVIFLACFLPYHVLLLVRSVWEASCDFAKGVFNAYHFSLLLTSFNCVADPVLYCFVSETTHRDLARLRGACLAFLTCSRTGRAREAYPLGAPEASGKSGAQGEEPELLTKLHPAFQTPNSPGSGGFPTGRLA [G2C], for which the cAMP reporter score is 0.612 in data set [1] (pH 5.5); -0.403 in data set [1] (pH 6); 0.702 in data set [1] (pH 6, modulator: ogerin); 0.011 in data set [1] (pH 6.5, modulator: ogerin). The surface expression score in data set [2] is -0.013.
